# Source: publication PMC4336329 (PLoS ONE, 2015)
# The campaign covered roughly 310,000 compounds. About 2,200 (0.71%) showed an effect of 50% or more. Effects have a minus sign here. This is one part of the list.
# Biological target: human ether-à-go-go-related gene (hERG) potassium channel (human, UniProt Q12809)
# Assay: primary screen, population patch clamp on CHO cells stably expressing hERG
# Chain of human ether-à-go-go-related gene (hERG) potassium channel (Q12809 whole entry, looked up): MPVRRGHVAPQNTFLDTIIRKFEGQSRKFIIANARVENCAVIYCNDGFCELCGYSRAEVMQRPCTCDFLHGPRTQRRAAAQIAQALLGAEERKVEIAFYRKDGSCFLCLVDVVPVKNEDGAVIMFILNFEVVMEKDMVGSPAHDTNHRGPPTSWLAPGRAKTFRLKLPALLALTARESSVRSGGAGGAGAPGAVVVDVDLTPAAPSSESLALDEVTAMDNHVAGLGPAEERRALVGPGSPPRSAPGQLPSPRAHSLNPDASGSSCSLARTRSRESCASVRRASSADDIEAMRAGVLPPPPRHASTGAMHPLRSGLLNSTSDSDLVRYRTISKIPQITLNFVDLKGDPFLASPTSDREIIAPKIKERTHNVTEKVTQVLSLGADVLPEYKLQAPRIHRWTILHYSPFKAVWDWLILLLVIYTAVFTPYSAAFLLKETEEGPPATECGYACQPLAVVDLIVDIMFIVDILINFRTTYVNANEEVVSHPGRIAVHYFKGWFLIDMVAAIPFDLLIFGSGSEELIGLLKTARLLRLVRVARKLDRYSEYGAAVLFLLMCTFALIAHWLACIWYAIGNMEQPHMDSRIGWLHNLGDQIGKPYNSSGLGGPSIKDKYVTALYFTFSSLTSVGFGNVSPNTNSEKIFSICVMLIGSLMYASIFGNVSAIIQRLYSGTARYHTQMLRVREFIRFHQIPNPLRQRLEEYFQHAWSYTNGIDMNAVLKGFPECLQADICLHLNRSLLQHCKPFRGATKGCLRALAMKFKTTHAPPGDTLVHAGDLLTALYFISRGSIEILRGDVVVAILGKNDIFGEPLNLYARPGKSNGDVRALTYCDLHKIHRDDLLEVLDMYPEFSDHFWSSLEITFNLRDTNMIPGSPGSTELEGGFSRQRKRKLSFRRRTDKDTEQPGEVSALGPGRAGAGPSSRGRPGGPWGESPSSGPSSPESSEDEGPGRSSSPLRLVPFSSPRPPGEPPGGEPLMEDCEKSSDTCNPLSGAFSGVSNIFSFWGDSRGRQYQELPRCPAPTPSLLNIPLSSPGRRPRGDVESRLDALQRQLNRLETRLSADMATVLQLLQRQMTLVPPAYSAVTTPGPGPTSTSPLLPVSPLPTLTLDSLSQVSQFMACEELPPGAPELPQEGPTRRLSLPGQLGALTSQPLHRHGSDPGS
row,Structure (SMILES),"hERG current change (%, negative = inhibition) at 1uM [%]"
1,Cc1ccc(-c2cc(C(=O)NCc3cccs3)no2)cc1,6.37
2,COc1cc(OC)cc(OCC(O)Cn2ccnc2C)c1 (centres unmarked),7.8
3,COc1ccc(/C=N/Nc2c(Cl)cc(Cl)cc2Cl)cc1CN1CCOCC1,8.11
4,COc1ccc(CCNS(=O)(=O)c2ccccc2)cc1OC,11.8
5,Cc1nn(C)cc1CNC(=O)C1(C)CC1(Cl)Cl (centres unmarked),17
6,CCOc1ccc2nc(SCC(=O)N(C)C)[nH]c2c1,15.7
7,COC(=O)C(Cc1ccc(OC(=O)c2ccc(Cl)cc2)cc1)N1Cc2ccccc2C1=O (centres unmarked),10.7
8,CS(=O)(=O)C1=C(O)C(=O)N(CCCC(=O)O)C1c1ccccc1F (centres unmarked),13.4
9,COc1ccc(CCn2c(=N)c(C(=O)NC3CCCC3)cc3c(=O)n4ccccc4nc32)cc1OC,-46.9
10,COc1ccc(CCN2C(=O)C3C4CC(C5C(C(N)=O)=NOC45)C3C2=O)cc1OC (centres unmarked),1.3
11,O=C(CSc1ccccc1C(=O)O)NCc1ccc(Cl)cc1,2.7
12,O=C(NCc1ccccc1)C(c1ccc(Cl)cc1)N(C(=O)c1csnn1)C1CC1 (centres unmarked),5.99
13,CC(=O)Nc1ccc(S(=O)(=O)NC(CC(=O)NCCCN2CCOCC2)C(C)C)cc1 (centres unmarked),9.52
14,Cc1ccc(S(=O)(=O)N(Cc2cccnc2)Cc2cc3ccccc3[nH]c2=O)cc1,-8.44
15,CCOc1cc(C(=O)NN=C2CCCC2)cc(OCC)c1OCC,30.2
16,O=C(NCC1CCCO1)C1CCN(S(=O)(=O)c2cc(Cl)ccc2Cl)CC1 (centres unmarked),-1.35
17,CCCN(CCC)CCCNC(=S)Nc1ccc2nc3n(c(=O)c2c1)CCCCC3,13.5
18,CCCC1(c2ccccc2)NC(=O)N(CC(=O)Nc2ccccc2C(F)(F)F)C1=O (centres unmarked),2.06
19,COC(=O)c1ccc(S(=O)(=O)N(C2CCCCC2)C2CCCCC2)n1C,2.78
20,COc1ccc(Nc2nc3ccccc3nc2-n2nc(C)cc2C)cc1,0.379
21,COc1cc(-c2ccc(NC(C)=O)c(OC)c2)ccc1NC(C)=O,1.37
22,O=C(CSc1ccc(Cl)cc1)Nn1cnnc1,1.19

row,Structure (SMILES),"hERG current change (%, negative = inhibition) at 1uM [%]"
1,Cc1ccc(CC(NC(=O)c2ccccc2)C(=O)NC(C)C(=O)O)cc1 (centres unmarked),5.25
2,O=C(O)CCC(=O)N1CCc2cc(S(=O)(=O)N3CCCCC3)ccc21,13.1
3,O=C(O)c1cc(N/N=C/c2cccnc2)ccc1Cl,-7.47
4,COc1cccc(C(=O)COC(=O)C(C)N2C(=O)C3C4C=CC(C4)C3C2=O)c1 (centres unmarked),5.43
5,O=C(O)c1c(F)c(F)c(F)c(F)c1-c1ccc(Cl)cc1,12.4
6,COC(=O)C1=C(c2ccc3ccccc3c2)C[C@@H]2CC[C@H]1N2C(=O)N1CCOCC1,4.17
7,COc1cc([N+](=O)[O-])ccc1-c1ccc(/C=N/NC(=O)OC(C)(C)C)o1,11.7
8,COc1ccc2c(c1)C(=O)N(CCc1ccc(S(=O)(=O)NC(=O)NC3CCCCC3)cc1)C(=O)C2(C)C,7.24
9,O=C(Cn1ncc2c(=O)oc3ccccc3c21)NC1CC1,12.2
10,CCCOc1cccc(C(=O)NC(=S)Nc2cccc(C(F)(F)F)c2)c1,14.4
11,COc1cc2c(cc1OC)CN(C1CC(=O)N(c3c(C)cccc3C)C1=O)CC2 (centres unmarked),12
12,Cc1cc(=O)oc2cc(OCC(=O)NCc3ccncc3)ccc12,-1.77
13,C/C(=N\NC(=O)c1cc(O)cc(O)c1)c1ccc(NC(=O)Cc2ccccc2)cc1,12.4
14,N#CCCn1cc(C(=O)O)c(-c2cccc([N+](=O)[O-])c2)n1,8.49
15,COc1ccc(CNC(=O)CN(c2ccccc2)S(=O)(=O)N(C)C)cc1,7.99
16,CCC(C)Cn1c([O-])cc2nn(-c3nc4ccccc4s3)c(=O)c-2c1C.[Na+] (centres unmarked),7.81
17,CCOc1ccc(CN2CCCN(C)CC2)cc1,13.7
18,O=C1CC[C@@H](OCc2ccccc2)CCN1CC[C@H](Sc1ccccc1)c1ccccc1,4.54
19,O=C(Nc1cc(F)c(Br)cc1F)c1ccc(Cl)cc1,10.6
20,O=C1CC2(CCOCC2)Oc2ccc3ccccc3c21,10
21,O=C(NCC1(O)CCCCC1)C1CCC(=O)N(CCc2ccccc2)C1 (centres unmarked),21.7
22,CC(C)(C)NC(=O)c1ccccc1NC(=O)C1CCCO1 (centres unmarked),1.7
